Source: the supplement of paper PMC9446081
About 220 (0.56%) of roughly 39,000 compounds showed activity. Some of the results follow.

Tested on: Escherichia coli K-12 BW25113
Assay: relative growth (OD600 normalised to plate interquartile mean) (fraction); higher = less growth inhibition, active = 0.2 or less
Settings: 50 µM; LB; incubation time: overnight (16-24 h)
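Note: static incubation at 37 °C against the wild-type strain, values averaged over two biological replicates.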

| SMILES | relative growth |
| --- | --- |
| CN(C)C(=O)CN1C[C@]23CN(Cc4cnn(C)c4)C[C@@H](C[C@@H]2S1(=O)=O)O3 | inactive: 0.995 |
| OC[C@@H](O)[C@@H](O)[C@H](O)[C@@H](O)CO | inactive: 1.01 |
| C[C@H](NC(=O)N(C)C[C@@H]1OCc2ccccc2-c2ccccc2C(=O)N([C@H](C)CO)C[C@H]1C)c1ccccc1 | inactive: 1.01 |
| COc1ccccc1N=C(NO)c1nonc1N | inactive: 0.938 |
| COCCOC(=O)N1C(=O)[C@@]2(c3cc(C#CC4=CCCCC4)ccc31)[C@H](c1ccc(OCCO)cc1)N1[C@H](c3ccccc3)[C@H](c3ccccc3)OC(=O)[C@H]1[C@@H]2C(=O)NC[C@H](O)c1ccccc1 | inactive: 1.11 |
| C[C@H](CO)N1C[C@H](C)[C@@H](CN(C)C(=O)Nc2cccc3ccccc23)Oc2c(NC(=O)Nc3cccc4ccccc34)cccc2C1=O | inactive: 1.02 |
| C[C@@H]1CN([C@H](C)CO)C(=O)Cc2cc(NC(=O)CCCN(C)C)ccc2O[C@@H]1CN(C)S(=O)(=O)c1ccc(F)cc1 | inactive: 0.982 |
| C[C@@H]1CN([C@H](C)CO)C(=O)c2cc(NC(=O)CCN3CCOCC3)ccc2O[C@@H]1CN(C)CC1CCCCC1 | inactive: 1.01 |
| COc1ccc(CN(C)C[C@@H]2OCCCC[C@@H](C)Oc3ccc(NC(=O)c4ccncc4)cc3C(=O)N([C@H](C)CO)C[C@H]2C)cc1 | inactive: 0.988 |
| C[C@@H]1CN([C@H](C)CO)C(=O)c2cc(NC(=O)CCCN(C)C)ccc2O[C@@H](C)CCCCO[C@H]1CN(C)Cc1ccc(C(F)(F)F)cc1 | inactive: 0.973 |
| C[C@@H]1CN([C@H](C)CO)C(=O)c2cc(NC(=O)Nc3ccc(F)cc3)ccc2O[C@@H](C)CCCCO[C@H]1CN(C)Cc1ccccc1 | inactive: 1.02 |
| COc1ccc(CN(C)C[C@H]2Oc3ccc(NC(=O)CCN4CCOCC4)cc3C(=O)N([C@H](C)CO)C[C@H]2C)cc1 | inactive: 0.99 |
| O=C(O)CNC(=O)c1cc2ccccc2[nH]1 | inactive: 0.95 |
| COc1cccc(C(=O)Nc2ccc3c(c2)C(=O)N(C)[C@H]2CC[C@@H](CC(=O)NCC(F)(F)F)O[C@H]2CO3)c1 | inactive: 1.02 |
| C[C@@H]1CCCCO[C@H](CN(C)C(=O)c2ccccc2)[C@H](C)CN([C@H](C)CO)C(=O)c2cc(NC(=O)c3ccccc3)ccc2O1 | inactive: 1.04 |
| C[C@H](NC(=O)N(C)C[C@@H]1OCc2ccccc2-c2c(n(C)c3ccccc23)C(=O)N([C@H](C)CO)C[C@@H]1C)c1ccccc1 | inactive: 0.997 |
| CN(C)CCCCNC(=O)[C@H]1C[C@H]2C(=O)N[C@@H](CCCCN)C(=O)N2[C@H]1c1cccc(OCCO)c1 | inactive: 0.982 |
| C[C@@H]1CN([C@H](C)CO)C(=O)c2cc(NC(=O)Nc3ccc(C(F)(F)F)cc3)ccc2O[C@@H](C)CCCCO[C@@H]1CN(C)C(=O)c1ccccc1 | inactive: 1.04 |
| C[C@H]1CN([C@@H](C)CO)C(=O)c2cc(NC(=O)c3ccncc3)ccc2O[C@H]1CN(C)Cc1ccc(-c2ccccc2)cc1 | inactive: 1 |
| CS(=O)(=O)N1C[C@H](O)COC[C@@H]2O[C@@H](CC(=O)NCc3ccccc3)CC[C@H]21 | inactive: 0.987 |

| SMILES | relative growth |
| --- | --- |
| C[C@@H]1CCCCO[C@@H](CN(C)C(=O)NC2CCCCC2)[C@H](C)CN([C@@H](C)CO)C(=O)c2cc(NC(=O)Nc3ccccc3)ccc2O1 | inactive: 1.02 |
| Cc1ccc(S(=O)(=O)N(C)C[C@@H]2Oc3ccc(NS(=O)(=O)c4ccc(F)cc4)cc3CC(=O)N([C@H](C)CO)C[C@@H]2C)cc1 | inactive: 1.01 |
| C=C1C=[N+]([O-])N(c2ccc(C(=O)O)cc2)N1 | inactive: 1.03 |
| C[C@@H]1CN([C@H](C)CO)C(=O)c2cc(NC(=O)Cc3ccccc3)ccc2O[C@@H](C)CCCCO[C@H]1CN(C)C(=O)Cc1ccccc1 | inactive: 0.977 |
| Cc1ccc(N2C(=O)C(=O)NC2=S)cc1 | inactive: 0.973 |
| C[C@@H]1CN([C@@H](C)CO)C(=O)Cc2cc(NC(=O)CCCCCC(=O)Nc3ccccc3N)ccc2O[C@@H]1CN(C)S(C)(=O)=O | inactive: 1.02 |
| CC(C)NC(=O)Nc1ccc2c(c1)C(=O)N([C@H](C)CO)C[C@@H](C)[C@H](CN(C)S(=O)(=O)c1cn(C)cn1)O2 | inactive: 0.979 |
| N=C(N)NCCN1CCCCCCC1.O=S(=O)(O)O | inactive: 1 |
| CCS(=O)(=O)N1C[C@]2(CCN(CC2)S(=O)(=O)c2cccs2)c2c(n(c3cc(ccc23)OC)C)[C@H]1CO | inactive: 0.983 |
| C[C@@H]1CCCCO[C@@H](CN(C)C(=O)C2CCCCC2)[C@@H](C)CN([C@H](C)CO)C(=O)c2cc(NC(=O)Nc3ccc(F)cc3)ccc2O1 | inactive: 1 |
| COc1ccc(S(=O)(=O)Nc2ccc3c(c2)C(=O)N([C@H](C)CO)C[C@H](C)[C@@H](CN(C)S(=O)(=O)c2ccccc2)O3)cc1 | inactive: 1.02 |
| C[C@@H]1CN([C@H](C)CO)S(=O)(=O)c2ccc(-c3cncnc3)cc2O[C@@H]1CN(C)C(=O)Cc1ccncc1 | inactive: 0.996 |
| CC(C)(C)c1csc(-c2ccc(-c3cccs3)s2)n1 | inactive: 0.916 |
| CCCC#Cc1ccc2c(c1)O[C@H](CN(C)Cc1ccc3c(c1)OCO3)[C@H](C)CN([C@H](C)CO)S2(=O)=O | inactive: 1.05 |
| C[C@@H]1CCCCO[C@@H](CN(C)Cc2ccc3c(c2)OCO3)[C@H](C)CN([C@@H](C)CO)C(=O)c2cc(NS(=O)(=O)c3ccccc3)ccc2O1 | inactive: 0.982 |
| CO[C@@H]1CN(C)C(=O)c2ccc(NS(C)(=O)=O)cc2OC[C@@H](C)N(C(=O)c2ccc3c(c2)OCO3)C[C@H]1C | inactive: 0.989 |
| C[C@H](CO)N1C[C@H](C)[C@@H](CN(C)C(=O)c2cccc(F)c2)Oc2cc(-c3ccncc3)ccc2S1(=O)=O | inactive: 1.02 |
| CN(C)CCC(c1ccc(Cl)cc1)c1ccccn1.O=C(O)C=CC(=O)O (stereo not given) | inactive: 0.956 |
| C[C@H](CO)N1C[C@H](C)[C@H](CN(C)C(=O)c2ccccc2)OCCCC[C@H](C)Oc2ccc(NC(=O)Nc3ccc(F)cc3)cc2C1=O | inactive: 1.03 |
| O=C(C[C@@H]1CC[C@@H]2[C@H](COC[C@@H](O)CN2S(=O)(=O)c2ccccc2)O1)NCCN1CCCCC1 | inactive: 1.02 |

| SMILES | relative growth |
| --- | --- |
| OCC1OC(OCCc2ccc(O)cc2)C(O)C(O)C1O (stereo not given) | inactive: 0.958 |
| C=CCNC(=O)[C@@H]1[C@H]2C(=O)O[C@H](c3ccccc3)[C@H](c3ccccc3)N2[C@H](c2ccc(OCCO)cc2)[C@@]12C(=O)N(C(=O)OCCOC)c1ccc(C#Cc3ccc(OC)cc3)cc12 | inactive: 1.02 |
| CO[C@@H]1CN(C)C(=O)c2cc(NS(=O)(=O)CC(F)(F)F)ccc2OC[C@@H](C)N(Cc2ccccn2)C[C@H]1C | inactive: 0.999 |
| C[C@H]1CN([C@@H](C)CO)C(=O)c2cccc(NS(=O)(=O)c3cn(C)cn3)c2O[C@@H]1CN(C)Cc1ccc2c(c1)OCO2 | inactive: 0.993 |
| C[C@@H]1CN([C@@H](C)CO)C(=O)c2cccc(NC(=O)Nc3ccc(F)cc3)c2O[C@H]1CN(C)Cc1ccc(Oc2ccccc2)cc1 | inactive: 0.956 |
| C[C@@H]1CN([C@H](C)CO)C(=O)c2cccc(NC(=O)Nc3ccc(C(F)(F)F)cc3)c2O[C@H]1CN(C)C(=O)Nc1ccc(F)cc1 | inactive: 0.889 |
| COc1ccc(S(=O)(=O)N(C)C[C@H]2Oc3ccc(NS(=O)(=O)c4ccc(C)cc4)cc3CC(=O)N([C@H](C)CO)C[C@H]2C)cc1 | inactive: 1.02 |
| C[C@@H]1CN([C@@H](C)CO)C(=O)c2cc(NC(=O)CCC(F)(F)F)ccc2O[C@@H](C)CCCCO[C@@H]1CN(C)C(=O)CCC(F)(F)F | inactive: 0.985 |
| COc1ccc(cc1)NC(=O)N1C[C@]2(C1)CN([C@H](CO)c1[nH]c3cc(ccc3c12)OC)C(=O)CN1CCOCC1 | inactive: 1.02 |
| C[C@H]1CN([C@@H](C)CO)C(=O)c2cccc(NS(=O)(=O)c3cn(C)cn3)c2O[C@@H]1CN(C)CC1CC1 | inactive: 0.997 |
| COc1ccc(CN(C)C[C@@H]2OCCCC[C@H](C)Oc3ccc(NC(=O)CCC(F)(F)F)cc3C(=O)N([C@@H](C)CO)C[C@@H]2C)cc1 | inactive: 0.997 |
| C[C@@H]1CCCCO[C@H](CN(C)Cc2ccc3c(c2)OCO3)[C@H](C)CN([C@H](C)CO)C(=O)c2cc(NC(=O)Nc3ccc(C(F)(F)F)cc3)ccc2O1 | inactive: 1.01 |
| C[C@@H]1CN([C@H](C)CO)S(=O)(=O)c2ccc(C#CC3CCCCC3)cc2O[C@@H]1CN(C)C(=O)Cc1ccncc1 | inactive: 0.996 |
| C[C@@H]1CN([C@@H](C)CO)C(=O)c2cccc(NC(=O)NC3CCCCC3)c2O[C@@H]1CN(C)Cc1ccc(C(F)(F)F)cc1 | inactive: 1.02 |
| NC(=O)[C@@H]1CC[C@@H]2CN1C(=O)N2OS(=O)(=O)O | active: 0.19 |
| CC1(O)CCOC(=O)C1 (stereo not given) | inactive: 0.908 |
| C[C@H]1CN([C@@H](C)CO)C(=O)Cc2cc(NC(=O)CCCCCC(=O)Nc3ccccc3N)ccc2O[C@H]1CN(C)Cc1ccccc1 | inactive: 0.99 |
| CC1CCC(NC(=O)N(CCCl)N=O)CC1 (stereo not given) | inactive: 1.13 |
| COc1ccc(NC(=O)Nc2ccc3c(c2)[C@@H]2C[C@H](CC(=O)NCc4ccc(-c5ccccc5)cc4)O[C@@H](CO)[C@@H]2O3)cc1 | inactive: 0.997 |
| C[C@@H]1CN([C@@H](C)CO)C(=O)c2cccc(NC(=O)C3CCCCC3)c2O[C@@H]1CN(C)Cc1ccc(-c2ccccc2)cc1 | inactive: 0.988 |
